# Source: PubChem BioAssay AID488969 (Vanderbilt High Throughput Screening Facility, 2010)
# In all, about 110,000 compounds were measured (“z-score”: median about -0.1, highest 2% from about 2 on). The list shows a part of the results. The source made the active and inactive calls.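 The calls were made as follows: active = z-score in the third read window above 3 or below -3; inactive = the rest.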
# Target: Metabotropic glutamate receptor 8 (Rattus norvegicus) (UniProt P70579)
# Assay: rat mGluR8 modulators via GIRK flux, primary screen, cell-based, thallium flux, HTS (AID 488969)
# Settings: HEK293 rat mGluR8, GIRK (G protein-gated inwardly rectifying potassium channel) thallium flux, FluoZin2; at 10 µM; stronger effect = higher value; submaximal glutamate (EC20) added with thallium
# Sequence of UniProt P70579 (P70579 whole entry, looked up): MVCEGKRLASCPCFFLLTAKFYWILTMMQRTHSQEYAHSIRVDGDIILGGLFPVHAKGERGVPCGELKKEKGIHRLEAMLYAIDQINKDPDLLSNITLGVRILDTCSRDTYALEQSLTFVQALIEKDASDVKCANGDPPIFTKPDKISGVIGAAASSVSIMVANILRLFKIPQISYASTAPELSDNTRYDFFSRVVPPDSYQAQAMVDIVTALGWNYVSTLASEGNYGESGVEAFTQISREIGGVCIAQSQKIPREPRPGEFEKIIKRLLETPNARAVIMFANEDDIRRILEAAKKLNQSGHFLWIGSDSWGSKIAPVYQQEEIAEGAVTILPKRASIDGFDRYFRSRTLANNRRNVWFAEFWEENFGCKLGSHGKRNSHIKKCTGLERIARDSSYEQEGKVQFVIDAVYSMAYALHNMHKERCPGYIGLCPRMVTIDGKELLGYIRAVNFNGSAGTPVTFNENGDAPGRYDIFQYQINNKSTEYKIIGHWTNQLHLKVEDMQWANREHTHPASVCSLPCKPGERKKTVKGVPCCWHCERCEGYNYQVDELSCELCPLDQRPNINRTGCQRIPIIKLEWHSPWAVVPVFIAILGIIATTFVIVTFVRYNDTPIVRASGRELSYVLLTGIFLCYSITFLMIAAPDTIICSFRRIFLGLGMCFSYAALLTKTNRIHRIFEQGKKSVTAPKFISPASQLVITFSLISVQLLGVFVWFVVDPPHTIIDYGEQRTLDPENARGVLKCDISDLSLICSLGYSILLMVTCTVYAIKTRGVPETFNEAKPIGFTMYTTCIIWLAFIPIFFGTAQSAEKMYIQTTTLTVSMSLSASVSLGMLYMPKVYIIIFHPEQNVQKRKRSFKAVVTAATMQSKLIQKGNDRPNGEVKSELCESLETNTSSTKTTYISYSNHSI
row,Structure (SMILES),z-score
1,CCCCCC(=O)Nc1nc(C)c(-c2csc(Nc3cc(OC)ccc3OC)n2)s1,-0.217
2,CC(=O)c1c(C(C)=O)c(C)n(-c2nc(-c3cccs3)c(C)s2)c1C,-2.87
3,CCCCn1c(=O)c(C(=O)c2ccccc2)nc2ccccc21,-0.617
4,Cc1ccc2[nH]c(=O)c(CN(CCN3CCOCC3)C(=O)Nc3ccc(F)cc3)cc2c1,-0.382
5,CC1(C)Cc2c(C#N)c(NCCCO)nc(-c3ccccc3)c2CO1,-0.107
6,Brc1ccc(C2=Nn3c(nnc3-c3cccnc3)SC2)s1,-0.134
7,CC(=O)c1cccc(NC(=O)c2ccc(S(=O)(=O)N3CCCCC3)cc2)c1,-0.0856
8,O=C(Nc1ccccc1)Nc1ccccc1C(=O)NCc1ccccc1,-0.329
9,Cc1cc(C(=O)NCCCOC(C)C)c2ccccc2n1,-0.139
10,O=C(NCCCN1CCOCC1)c1cc(C(=O)C2CC2)c[nH]1,-0.179
11,CONc1nc(NC(C)(C)C)nc(OCC#N)n1,0.0532
12,Cc1ccc(C(=O)c2cc([N+](=O)[O-])ccc2N2CCCCC2)cc1C,0.391
13,NS(=O)(=O)c1ccc(CCNC(=O)CCCCCNc2nc(=S)[nH]c3ccccc23)cc1,-0.55
14,Cc1onc(-c2ccccc2)c1C(=O)n1cccn1,0.00196
15,Cn1cc(C(=O)c2ccc(Cl)cc2Cl)cc1C(=O)N/N=C(\N)COc1ccccc1,-1.68
16,CCCCN(CC)CCCNC(=O)CC1Nc2ccccc2NC1=O (stereo not given),0.0522
17,CCOC(=O)c1c(C(C)(C)C)oc2ccc(OCC#N)cc12,1.22
18,CC(=O)Nc1c(C(=O)N2CCN(c3ncccn3)CC2)cnn1-c1ccccc1Cl,-0.0377
19,CCOC(=O)c1sc2nc(CC(=O)OC)nc(NCc3ccco3)c2c1C,-0.245
20,O=C(CSCc1ccc(Br)cc1)N=Nc1c(O)[nH]c2ccccc12,2.84
21,O=C(COc1ccccc1)Nc1nn[nH]n1,0.183
22,O=C1CN(C(=O)CSc2nnc(Nc3ccccc3)s2)c2ccccc2N1,-0.133

row,Structure (SMILES),z-score
1,Cc1ccc(-n2c(SCC(=O)Nc3ccc4c(c3)OCO4)nnc2-c2cccs2)cc1,0.524
2,CCc1ccc(C(=O)COC(=O)CNC(=O)c2cccs2)cc1,-0.0493
3,Fc1cccc(-n2c(-c3ccco3)nc3nc4ccccc4nc32)c1,active: 3.05
4,CCOc1ccc(S(=O)(=O)NCCC(=O)NC2=NCCS2)cc1,-0.521
5,CCOC(=O)c1c(NC(=O)C2C3CCC(O3)C2C(=O)O)sc(C)c1-c1ccc(F)cc1 (stereo not given),-0.176
6,CC(C)CCNC(=O)c1cccc(S(=O)(=O)N2CCc3ccccc32)c1,-0.24
7,Cc1ccc(S(=O)(=O)NCc2csc(C)n2)c(C)c1,-0.542
8,OCCOc1ccc(C2=NCCO2)cc1,0.0997
9,COC(=O)c1cc(Br)c(=O)n(CCc2ccc(F)cc2)c1,0.362
10,Cc1ccc(S(=O)(=O)N2CCCC(C(=O)NCc3ccco3)C2)cc1Cl (stereo not given),-0.285
11,O=C(Nc1nc2ccc(F)cc2s1)C1CCCO1 (stereo not given),0.535
12,Cc1cc2c(c(=O)n1Cc1cccnc1)C(c1ccccc1)C(C#N)=C(N)O2 (stereo not given),-0.39
13,CC(Nc1cc(N2CCCC2)ccc1[N+](=O)[O-])c1ccccc1 (stereo not given),-0.624
14,Cc1cc([N+](=O)[O-])nn1CC(=O)NNC(=S)Nc1ccc(Cl)cc1,-0.0824
15,Cc1cc(C)nc(NC2=NCC(=O)N2c2ccc3c(c2)OCCO3)n1,0.0797
16,Cn1c(Cc2cccs2)nnc1SC/C=C/c1ccccc1,-0.741
17,COc1ccc(C(=O)NC(=S)N2CCCCC2)cc1,active: 3.44
18,Cc1cccc(NC(=O)c2ccc([N+](=O)[O-])o2)n1,-0.0205
19,Cc1noc(C)c1S(=O)(=O)N(CC(=O)N1CCCC1)c1ccc(C(C)C)cc1,-0.347
20,COc1ccc(C(=O)NCc2nnc(SCC(=O)N3CCc4ccccc43)n2CCc2ccccc2)cc1,-0.000737
21,Cc1ccc(NC(=O)C(SCC(=O)O)c2ccccc2)cc1C (stereo not given),-0.36
22,CN(C)C(=O)Nc1cnc2ccccc2c1,-1.01

row,Structure (SMILES),z-score
1,N#Cc1nc(-c2ccccc2Cl)oc1NCC1CCCO1 (stereo not given),-0.164
2,CCCn1nc2cc(C(=O)NCCc3cccs3)ccc2c1OCC,-0.373
3,O=C1c2oc3ccc(F)cc3c(=O)c2C(c2ccccc2)N1CC1CCCO1 (stereo not given),0.654
4,CCn1c(-c2cc(-c3cc(OC)ccc3OC)nc3ccccc23)n[nH]c1=S,0.132
5,CCC(=O)NCCCCCCCCCNC(=O)CC,-0.227
6,CN(CC(=O)Nc1cccc2c1CCCC2)S(=O)(=O)c1ccccc1,-0.247
7,Cc1oc(C(=O)O)cc1COc1cccc2cccnc12,-0.302
8,CN1CCN(S(=O)(=O)c2ccc(NC(=O)c3csc4ccccc34)cc2)CC1,1.16
9,CCCn1c(SCC(=O)N2c3ccccc3CCc3ccccc32)nc2c1c(=O)n(C)c(=O)n2C,-0.358
10,Cc1ccccc1-c1nc2sc3c(c2c(=O)n1N)CCCC3,0.58
11,O=C(CSc1nc2ccc(Cl)cc2[nH]1)N1CCN(C(=O)c2ccco2)CC1,-0.163
12,CN(CCCNC(=O)c1ccc(/C=N/O)nc1)CCCN(C)Cc1ccccc1,-0.117
13,CCSc1nc(C)c(CC)c(C)c1C(N)=O,0.272
14,CC(=O)N1N=C(C)CC1c1ccc(O)cc1 (stereo not given),-0.132
15,Cc1ccc(C=Nc2cc([N+](=O)[O-])ccc2C)s1,-0.082
16,Cc1noc(C)c1CSc1nc2[nH]ncc2c(=O)n1-c1ccccc1,-0.191
17,c1ccc2c(c1)ncn2CCC1CCCCC1,0.093
18,C#CCn1c(S(=O)(=O)Cc2ccc(C)cc2)nc(-c2ccccc2)c1-c1ccccc1,-0.259
19,CCS(=O)(=O)CCSc1nc(C)cc(C)c1C#N,-0.438
20,c1ccc(Oc2cc(-c3ccccc3)ncn2)cc1,-0.0979
21,COC(=O)Cn1c(=O)n(CCc2ccccc2)c(=O)c2c3c(sc21)CCCC3,0.15
22,CSc1nc(N2CCOCC2)c2c(c1C#N)CCCCC2,-0.315

row,Structure (SMILES),z-score
1,CC1(C)Cc2nc3oc4c(N5CCOCC5)ncnc4c3cc2CO1,-0.0757
2,Cc1c(NS(=O)(=O)c2ccc(N(C)C3CCCCC3)c([N+](=O)[O-])c2)c(=O)n(-c2ccccc2)n1C,-0.65
3,CC(C)CN(C(=O)COC(=O)c1ccccc1Sc1ccccc1C#N)C1CCS(=O)(=O)C1 (stereo not given),-0.221
4,COCCCNC(=O)c1ccc(N2CCOCC2)c(NS(=O)(=O)c2ccc(OC)cc2)c1,0.0672
5,COC(=O)c1ccccc1NC(=O)C1CCN(C(=O)c2cc(OC)c(OC)c(OC)c2)CC1,-0.579
6,CCc1cc2c(=O)c(-c3cnn(-c4ccccc4)c3)c(C)oc2c(CN2CCCCC2)c1O,-0.384
7,CCN(CC)CCCCOc1ccccc1OC,0.303
8,CCc1cc(C(=O)OC)c(NC(=O)C2CC(=O)NN2Cc2ccccc2)s1 (stereo not given),-0.283
9,Cc1nc2cc(C(=O)OCC(=O)NC34CC5CC(CC(C5)C3)C4)ccc2n1-c1ccccc1,-0.146
10,O=C(NNC(=O)C1COc2ccccc2O1)c1ccccc1 (stereo not given),0.0265
11,O=C1NC(=S)S/C1=C1\Sc2ccccc2N1CCCS(=O)(=O)O,-0.365
12,CCCCNc1nnc(SCC(=O)N2CCN(S(=O)(=O)c3ccc4ccccc4c3)CC2)s1,-0.358
13,O=[N+]([O-])c1cccc(C(=S)N2CCN(c3ccccc3)CC2)c1,-0.237
14,COc1ccccc1NC(=O)N(Cc1ccco1)Cc1cc2cccc(C)c2[nH]c1=O,-0.837
15,CCN1CCN(C(=O)C2CCN(S(=O)(=O)c3cccc4cccnc34)CC2)CC1,0.0329
16,CCOC(=O)Nc1nnc(-c2ccc(OC)cc2)s1,0.0823
17,O=C(CN1CCCC1=O)NC1C2CC3CC(C2)CC1C3 (stereo not given),0.96
18,O=C(CS(=O)(=O)Cc1ccccc1)Nc1ccc(Cl)cn1,-0.0774
19,O=C(O)CSc1nnc(CNc2cccc(C(F)(F)F)c2)n1Cc1ccco1,0.202
20,CCOC(=O)Cn1c(=O)oc2cc(S(=O)(=O)N3CCCc4ccccc43)ccc21,-0.376
21,Fc1ccc(NCc2nnc(SCc3nnc(-c4ccccc4)o3)n2CC2CCCO2)cc1 (stereo not given),0.131
22,O=C(O)C1CCC(CNCc2ccccc2Cl)CC1 (stereo not given),-0.333

row,Structure (SMILES),z-score
1,Cc1nc2ccc(S(=O)(=O)N(C)CC(=O)N3CCc4ccccc4C3)cc2s1,0.317
2,CN(C)CCCNCCCNC(=O)/C=N/O,-0.226
3,CCOc1ccc(NC(=S)/C(=C(\[O-])c2ccc(C)c([N+](=O)[O-])c2)[n+]2ccccc2)cc1,-0.213
4,O=C(C(c1ccccc1)c1ccccc1)N1CCC(c2nc(-c3ccccc3Cl)no2)CC1,0.17
5,O=C(c1ccc2c(c1)OCO2)N1CCOCC1,-0.335
6,COc1ccc(N(CC(=O)Nc2c(C)n(C)n(-c3ccccc3)c2=O)S(=O)(=O)c2ccc(F)cc2)cc1,-0.0544
7,CCn1nccc1C(=O)Nc1cc(Cl)cc(Cl)c1,-0.297
8,O=C(CSc1nnc(C23CC4CC(CC(C4)C2)C3)o1)Nc1ccc(N2CCOCC2)c(Cl)c1,0.207
9,CCN(CC)C(=O)NC1CC(=O)N(c2ccc(OC)cc2)C1 (stereo not given),0.0777
10,COc1ccc(C(=O)N/N=C/c2ccc(OC(=O)c3cccc4ccccc34)c([N+](=O)[O-])c2)cc1,0.601
11,CCN(C(=O)c1c(C)cc(=O)oc1C)c1ccc2c(c1)OCO2,-0.0854
12,COc1ccc(C(=O)NC2CCN(C(=O)NC3CCCCC3)CC2)cc1,-0.51
13,O=C(Nc1nnc(CCS(=O)(=O)c2ccc3ccccc3c2)s1)c1cccs1,0.209
14,Cc1ccc(C(=O)NCC(=O)OCC(=O)N2CCCc3ccccc32)cc1,-0.431
15,COc1ccc2[nH]c(C)c(CCN(Cc3cccs3)C(=S)Nc3ccc(F)cc3)c2c1,0.116
16,CCc1ccc(CNC(=O)C2CCC(=O)N2C2CCCCC2)cc1 (stereo not given),-0.165
17,C=CCNC(=O)c1onc(CSc2ccccc2F)c1C(=O)O,-0.015
18,CCCCCCOC1(c2ccccc2)OC(=O)c2ccccc21 (stereo not given),-0.0162
19,CCOC(=O)N1CCN(CC(=O)c2c[nH]c3ccc(F)cc23)CC1,0.432
20,CCC(C(=O)OC)n1cnc2c(nnn2-c2cccc(Cl)c2)c1=O (stereo not given),-0.889
21,Cc1ccc(NC(=O)COC(=O)c2ccn(C)n2)cc1,-0.219
22,COc1ccc(NC(=O)C23CC4CC(C2)CC(n2cnc(Br)n2)(C4)C3)cc1OC,-0.248
